B1: CPEB3 Ribozyme (parent)
chain: UAACAGGGGGCCACAGCAGAAGCGUUCACGUCGCAGCCCCUGUCAGAUUCUGGUGAAUCUGCGAAUUCUGCUGUAUAUCUC

Read counts are not given, so values of variants with three or more changes are uncertain.

Variants of B1 are the subject of this data set. Kind of data set: self-cleavage, relative activity (ratio to wild type); higher = more cleavage; in vitro, sequencing. The gist of the method:
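Relative activity was defined as the cleaved/total read fraction for a variant divided by the same fraction for the unmutated ribozyme. CPEB3 self-cleaving ribozyme libraries were made by rounds of error-prone PCR, barcoded, and transcribed in vitro with T7 RNA polymerase for 5 hours at 37°C, and cleavage ran through transcription plus a 15 min DNase I step before EDTA. Illumina sequencing of template-switched reverse transcripts gave the reads, and DNA sequencing mapped the barcodes. Averages come from three batches, using variants with at least 5 reads.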
For the variant CAACAGGGGGCCACAGCAGAGGCGUUCGCGUCGCAGCCCCUGUCAGAUUCUGGUGAAUCUGCGAAUUCUGCUGUAUAUCUC, the self-cleavage was found to be 0.35.
CAACAGGGGGCCACAGCAGGAGCGUUCACGUCGCAGCCCCUGUCGGAUUCUGGCGAAUCUGCGAAUUCUGCUGUAUAUCUC: the self-cleavage is 0.26.
CAACAGGGGGCCACAGCAGUAGUGUUCACGUCGCAGCCCCUGUCAGAUUCUGGUGUAGCUGCGAAUCCUGCUGUAUAUCUC: the self-cleavage came out at 0.06.
The result for CAACAGGGGGCCACAGCAGAAGCGUUCACGUCGCGGCCCCUGUCGGAUUCUGGAGAAUCUGCGAAUUCUGCUGUAUAUCUC reads 1.2.
The result for CAACAGGGGGCCACAGCAGAAGCGUUCACGUCGCGGCCCCUGUCAGAUACUGGUGAAUCUGCGAAUUCUGCUGUAUAUCUC reads 1.24.
Turning to CAACAGGGGGCCACAGCAGGAGCGUUCACGUCGCAGCCCUUGUCAGAUUCUGGUGAAUCUGCGAAUUCUGCUGUAUAUCUC, the self-cleavage stood at 0.38.
The same measure for CAACAGGGGGCCACAGCAGGAGCGUUCACGUCGCAGCCCCUGUCAGAUUCUGGUGAGUCUGCGAAUCCUGCUGUAUAUCCC: 1.13.
For CAACAGGGGGCCACAGCAGAAGCGUUCACGUCGCGGCCCCUGUCAGAUUCUGGUGAAUCUGCGAAUUCCGCUGUAUAUCCC, the self-cleavage is 1.06.
The same measure for CAACAGGGGGCCACAGCAGAGGCGUUCACGUCGCAGCCCCUGUCAGAUUCUGGUGAAUCUGCGUAUUCUGCUGUAUAUCUC: 0.38; for CAACAGGGGGCCACAGCAGGAGCGUUCGCGUCGCUGCCCCUGCCAGAUUCUGGUGAAUCUGCGAAUUCUGCUGUAUAUCCC: 0.04; for CAACAGGGGGCCACAGCAGAAGCGUUCGCGCCGCAACCCCUGUCAGAUUCUGGUGAAUCUGCGAAUUCUGCUGUAUGUCUC: 0.07.
The same measure for CAACAGGGGGCCACAGCAGAUGCGUUCACGUCGCAGCCCCUGUCAGAUUCUGGUGGAUCUGCGAAUUCUGCUGUAUAUCUC: 0.12; for CAACAGGGGGCCACAGCAGGAGCGUUCACGUCGCGGCCCCUGUCAGAUUCUGGUGAACCUGCGAAUUCUGCUGUAUAUCUC: 0.81; for CAACAGGGGGCCACAGCAGAAGCGUUCACGUCGCGGCCCCUGUCAGAUUCUGGUGAAUCUGCGAAUUCUGCUGUAUACCUC: 1.06.
As to CAACAGGGGGCCACAGCAGAGGCGUUCACGUCGCAGCCCCAGCCAGAUUCUGGUGAGCCUUCGAAUUCUGCUGUAUAUCUC, the self-cleavage was 0.03.
With CAACAGGGGGCCACAGCAGAGGCGUUCACGUCGCAGCCCCUGUAAGAUUCUGGUGAAUCUGCGGAUUCUGCUGUAUACCUC, the self-cleavage turned out to be 0.14.
The result for CAACAGGGGGCCACAGCAGAAGCGUUCACGUCGCGGCCCCUGUCAGAUUCCGGUGAAUCUGCGAAUUCUGCUGUGUAUCUC reads 1.26.
As for CAACAGGGGGCCACAGCAGAAGCGUUCGCGUCACAGCCCCUGUCAGAUUCUGGUGAAUCUGCGGGUUCAGCUGUAUAUCUC, the self-cleavage turned out to be 0.12.
The same measure for CAACAGGGGGCCACAGCAGAAGCGUUCGCGUCGCAGCCCCUGUCAGAUUCAGGUGAAUCUGCGAACUCUGCUGUAUAUCUC: 0.37; for CAACAGGGGGCCACAGCAGAAGCGUUCUCGUCACAGCCCCUGUCAGAUUCUGGUGAAUCUGCGAAUUCUGCUGUAUAUCUC: 0.08.
The same measure for CAACAGGGGGCCACAGCAGAAGCGUUCGCGUCGCAGCCCCUGUCAGAUUCUGGCGAAUCUGCGAAUUCUGCUGUAUAUCUC: 0.79; for CAACAGGGGGCCACAGCAGUAGCAUUCACGUCGCAGCCCCAGUCGGAUUCCGGUGAAUCUGCGAAUUCUGCUGUAUAUCUC: 0.02.
The result for CAACAGGGGGCCACAGCAGGAGCGUUCACGUCGCAGCCCCUGUCAGAUUCUGGUGAAUCUGCGAAUUCUGCUAUAUAUCUC reads 0.74.
CAACAGGGGGCCACAGCAGAAGCGUUCGCAUCGCAGCCCCCGUCAGAUUCUGGUGAAUCUGCGAAUUCUGCAGUAUAUCUC: the self-cleavage was 0.06.
For the variant CAACAGGGGGCCACAGCAGGAGCGUUCACGUCGCAGCCCCUGUCAGAUUCUGGUGAAUCUGCGAAUACUGCCGUAUAUCUC, the self-cleavage is 0.61.
The same measure for CAACAGGGGGCCACAGCAGUAGCGUUCACGUCGCUGCCCCUGUCAGAUUCUGGUGAAUCUGCGAAUUCUGCUGUAUAUCUC: 0.22; for CAACAGGGGGCCACAGCAGAAGCGUUCACGUCGCGGCCCCUGUCAGAUUCUGGUGAUUCAGCGAAUUCUGCUGUAUAUCUC: 0.59; for CAACAGGGGGCCACAGCAGAUGCGUUCACGUCGCAGCCCCUGUCAGACUCUGGCGAGUCUGCGAGUUCUGCUGUAUAUCUC: 0.03.
The same measure for CAACAGGGGGCCACAGCAGAAGCGUUCGCGUCGCUGCCCCUGUCAGAUUCUGGUGAAUCUGCGAAUUCUGCUCUAUAUCUC: 0.56.
CAACAGGGGGCCACAGCAGUAGCGUUCACGUCGCAGCCCUUGUCAGAUUCUGGUGAAUCUGCGAAUUCGGCUGUAUAUCUC: the self-cleavage stood at 0.19.
The result for CAACAGGGGGCCACAGCAGAAGCGUUCCCGUCGCAGCCCCUGUCAGAUUCUGGCGAGUCUGCGAAUUCUGCUGUAAAUCUC reads 0.24; that for CAACAGGGGGCCACAGCAGAGGCGUUCACGUCGCAGCCCCUGUCAGACUCUGGUGAGUCUGCGGAUUCUGCUGUAUAUCUC, 0.16; that for CAACAGGGGGCCACAGCAGAAGCGUUCGCGUCGCAGCUCCUGUCAGAUUCUGGUGAAUCUGCGAAUUCUGCUGUAUAUCUC, 0.59.
Consider CAACAGGGGGCCACAGCAGAGGCGUUCACACCGCAGCCCCUGUCAGAUUCUGGUGAAUCUGCGAAUUCUGCUGUAUAUCUC, for which the self-cleavage was found to be 0.07.

For the origin of these results see the RNAGym collection of RNA variant scans (doi:10.1093/nar/gkz1192).
